Laboratory results published in PubChem BioAssay (NCI).
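How tested: cells in 96-well plates exposed to compound for 48 hours at five concentrations. GI50 marks 50% less growth.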 A number of entries come with more than one value. This is not the full list of results. There may be further records. For some assays here: The tests behind the records often covered other concentration ranges, not given here; a value can be the end of its range. For some assays here: The records of an entry are repeats (runs, samples, wells, individuals or studies). Records carry a tag for their origin. The letters are not those of the source and start again with each entry.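 TGI is the concentration that stops growth completely.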

Experiments:
Assay in all cases: NCI-60 cell line screen, 48 h
IGROV1 ovarian = test system: IGROV1 ovarian
MALME-3M melanoma = test system: MALME-3M melanoma
EKVX NSCLC = test system: EKVX NSCLC
UO-31 renal = test system: UO-31 renal
SF-539 CNS = test system: SF-539 CNS
HL-60(TB) leukemia = test system: HL-60(TB) leukemia
MCF7 breast = test system: MCF7 breast
SNB-75 CNS = test system: SNB-75 CNS
SR leukemia = test system: SR leukemia
HT29 colon = test system: HT29 colon
COLO 205 colon = test system: COLO 205 colon
TK-10 renal = test system: TK-10 renal
RPMI-8226 leukemia = test system: RPMI-8226 leukemia
NCI-H522 lung = test system: NCI-H522 lung
HS 578T breast = test system: HS 578T breast
MDA-N = test system: MDA-N
MDA-MB-435 = test system: MDA-MB-435
NCI-H23 lung = test system: NCI-H23 lung
K-562 leukemia = test system: K-562 leukemia
HCT-15 colon = test system: HCT-15 colon
NCI/ADR-RES ovarian = test system: NCI/ADR-RES ovarian
SK-OV-3 ovarian = test system: SK-OV-3 ovarian
SK-MEL-5 melanoma = test system: SK-MEL-5 melanoma
SW-620 colon = test system: SW-620 colon
CCRF-CEM leukemia = test system: CCRF-CEM leukemia

Q: What does the source list for COc1cccc(OCCCN)c1-c1cc(Nc2cnc(C#N)cn2)n[nH]1?
A: GI50 (IGROV1 ovarian): 6.89 nM [1 test] and 102 nM [mean of 2 tests]; GI50 (MALME-3M melanoma): 47.3 nM [1 test] and 944 nM [mean of 2 tests]; GI50 (EKVX NSCLC): 17 nM [1 test] and 249 nM [mean of 2 tests]; TGI (UO-31 renal): 104 nM [1 test] and 2.43 µM [mean of 2 tests]

Q: CNC(=O)CC1NC(=O)c2csc(n2)-c2ccc(-c3nc(C4=NC(C(=O)N5CCCC5C(N)=O)CO4)cs3)nc2-c2csc(n2)-c2csc(n2)C(C(C)C)NC(=O)CNC(=O)c2csc(n2)C(C(C)C)NC(=O)c2nc1sc2C (centres undefined) was tested. Which TGI (SF-539 CNS) did it give?
A: The TGI was 14.5 nM and > 25 µM.

Q: What about the TGI (HL-60(TB) leukemia) of the same compound?
A: Its TGI is 7.2 nM and > 25 µM.

Q: And the TGI (MCF7 breast)?
A: Its TGI is 2.48 µM and > 25 µM.

Q: And the TGI (IGROV1 ovarian)?
A: The TGI was 683 nM and > 25 µM.

Q: And the TGI (SNB-75 CNS)?
A: The TGI was 167 nM and > 25 µM.

Q: And the TGI (SR leukemia)?
A: Its TGI is 175 nM and > 25 µM.

Q: What about the TGI (HT29 colon) of the same compound?
A: Its TGI is 29 nM and > 25 µM.

Q: And the TGI (COLO 205 colon)?
A: The TGI was 795 nM and > 25 µM.

Q: And the TGI (TK-10 renal)?
A: Its TGI is 882 nM and > 25 µM.

Q: And the TGI (RPMI-8226 leukemia)?
A: Its TGI is 498 nM and > 25 µM.

Q: What about the GI50 (NCI-H522 lung) of the same compound?
A: The GI50 was 1.77 nM and > 25 µM.

Q: What about the TGI (NCI-H522 lung) of the same compound?
A: The TGI was 33.4 nM and > 25 µM.

Q: And the TGI (HS 578T breast)?
A: Its TGI is 7.42 nM and > 25 µM.

Q: And the TGI (MDA-N)?
A: The TGI was 1.26 nM and > 25 µM.

Q: What about the TGI (MDA-MB-435) of the same compound?
A: Its TGI is 2.54 nM and > 25 µM.

Q: And the TGI (NCI-H23 lung)?
A: The TGI was 615 nM and > 25 µM.

Q: With CC1(O)CC(c2nc(-c3ccc4ccc(-c5ccccc5)nc4c3)c3c(N)nccn23)C1 (centres undefined) as the compound, how does the GI50 (K-562 leukemia) read?
A: Its GI50 is 13 µM [sample A, mean of 2 tests] and 41.4 nM [sample B, 1 test].

Q: For Oc1[nH]c2c(Br)cccc2c1C1=Nc2ccccc2/C1=N/OCCN1CCCC1, which TGI (HCT-15 colon) is on record?
A: The TGI was 4.24 µM and > 100 µM.

Q: What about the TGI (HL-60(TB) leukemia) of the same compound?
A: The TGI was 3.52 µM and > 100 µM.

Q: And the TGI (NCI/ADR-RES ovarian)?
A: The TGI was 7.73 µM and > 100 µM.

Q: And the TGI (SK-OV-3 ovarian)?
A: Its TGI is 4.3 µM and > 100 µM.

Q: What about the TGI (SK-MEL-5 melanoma) of the same compound?
A: The TGI was 2.38 µM and > 100 µM.

Q: What about the TGI (SW-620 colon) of the same compound?
A: Its TGI is 3.27 µM and > 100 µM.

Q: And the TGI (RPMI-8226 leukemia)?
A: The TGI was 4.85 µM and > 100 µM.

Q: And the TGI (CCRF-CEM leukemia)?
A: The TGI was 5.88 µM and > 100 µM.
